From PubChem BioAssay AID743279 (National Center for Advancing Translational Sciences (NCATS), 2014)
Screen size: about 360,000 compounds; about 17,000 (4.7%) were called active. This list was built around the results that the source calls inconclusive (neither active nor inactive); the mix of calls is not that of the screen. No stated cut-off is given here; in the data, active means activity change below about -50%; inconclusive means mostly about -30% to -49%; inactive means weaker than that.

experiment: qHTS for Inhibitors of Inflammasome Signaling: IL-1-beta AlphaLISA Primary Screen; conditions: THP-1 LPS/ATP IL-1B secretion, 16 h; at 57.5 µM, hits give low values
How it was run: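 THP-1 cells pretreated 1 hr with compounds (up to 57.5 uM final), then stimulated with LPS (250 ng/mL final) plus ATP (1.25 mM final); secreted IL-1B measured by AlphaLISA after 16 hr, decreased signal indicating inhibition.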
On the % scale 0 is the no-effect control and ±100 the full control effect.

Activity change, inconclusive:
COc1cc(/C=C(\C#N)c2nc3ccccc3[nH]2)ccc1Oc1ccc([N+](=O)[O-])cn1 -37.6%
Cn1c(CCN2CCCCC2)nc2cc(NC(=O)C3CCCCC3)ccc21 -35.6%
O=c1c2c(nc(NCCO)n1CC1CCCCC1)-c1ccccc1CC21CCCC1 -32.9%
O=C(/C=C1\NC2(CCCC2)Cc2ccccc21)C(=O)N/N=C/c1ccc(O)c(O)c1 -39.7%
OCCNCCSc1nc(C2CCCCC2)n(-c2ccccc2Cl)n1 -45.7%
COCCNC(=O)c1ccc2c(c1)ncn2-c1ccc(F)c(F)c1 -43.4%
C#CCOCCOCCOCCNc1nc(N2CCN(C(=O)CCCCCCCCCCNC(=O)[C@@H](CCC(=O)O)n3cc(CCCCCN)nn3)CC2)nc(N2CCN(C(=O)CCCCCCCCCCNC(=O)[C@H](CO)n3cc(CCCCCN)nn3)CC2)n1 -44.4%
CN(C1CCCCC1)S(=O)(=O)c1ccc(-c2ccccn2)s1 -30.6%
COc1ccc(Nc2nc(N)nc(CN3CCN(c4ccc(F)cc4)CC3)n2)cc1 -42.5%
CCCCOc1ccc(C(O)C(CN2CCCCC2)c2ccccc2)cc1 (stereo not given) -49.3%
O=[N+]([O-])c1ccc(NN=C(Oc2ccccc2)c2ccc([N+](=O)[O-])cc2)cc1 -42.3%
CC(C)(C)OC(=O)N/N=C\C=C\c1ccc2c(c1)OCO2 -47.8%
CCOc1ccccc1N1CCN(C(=O)c2ccc(Cl)c(S(=O)(=O)N3CCCCC3)c2)CC1 -44.5%
O=C(COC(=O)C1CC2C=CC1C2)NCCc1ccccc1 (stereo not given) -31.9%
CN(CCNC(=O)c1cc2c(=O)n(C)c3ccccc3c2n1C)Cc1ccccc1 -41%
CSc1nnc(-c2cc3c(-c4ccccc4)nn(C)c3s2)n1C -46.5%
CC(=O)N=c1c(C#N)cc2c(=O)n3ccccc3nc2n1CCCOC(C)C -38%
COc1ccc2nc(N(CCN(C)C)C(=O)c3ccc(C(=O)c4ccccc4)cc3)sc2c1 -47.1%
Cc1nn(Cc2ccc(Cl)cc2Cl)c(C)c1NC(=O)c1ccc(COc2cc(Cl)ccc2Cl)o1 -39.4%
COc1ccc(Nc2nc(N)nc(CN3CCC(Cc4ccccc4)CC3)n2)cc1 -36.2%
Cc1ccc2[nH]c(=O)c(CN(Cc3ccccc3Cl)C(=O)N3CCOCC3)cc2c1 -39%
Cc1ccc(-n2ncc3c(Nc4cccc(C(=O)O)c4)ncnc32)cc1 -46.9%
O=C(CCl)N(C1CCCC1)C1CCS(=O)(=O)C1 (stereo not given) -41.5%
Cn1c(-c2ccccc2F)cc2onc(-c3ccccc3)c2c1=O -32%
Cc1cc(C)nc(NC(=O)/C=C/c2ccc(Cl)cc2)n1 -36.1%
C=CCc1ccc(OCCCNCc2ccccc2)c(OC)c1 -45.7%
O=C(Cc1cc(C(=O)O)c2ccccc2n1)Nc1ccccc1 -36.1%
O=C(C1=C[C@@H](c2ccc(C(F)(F)F)cc2)C[C@@H](OCCCCO)O1)N1CCN(Cc2ccc3c(c2)OCO3)CC1 -44.5%
CCOc1cc2c(C#N)c(N(CC)CC)nc(N)c2c(N)n1 -31.1%
O=C1C(Cc2ccccc2)Nc2ncnc(N3CCCCC3)c2N1Cc1ccc(Br)cc1 (stereo not given) -39.8%
CC(=O)Nc1cc(-c2ccc(CO)cc2)cn2c(-c3ccc(F)cc3)cnc12 -33.8%
O=C(Cc1ccc(F)cc1)Nc1ccc(S(=O)(=O)N2CCCC2)cc1 -37.4%
COC(=O)C[C@@H]1C[C@@H]2c3cc(NS(=O)(=O)c4ccc(F)cc4)ccc3O[C@@H]2[C@H](CO)O1 -30.3%
CCOC(=O)C1=C(C)N(c2ccccc2)C(=O)/C1=C\c1cccs1 -30.7%
CCOC(=O)CSc1nc(C)c(CC)c(C)c1C(N)=O -39.4%
Cc1ccc(N2CCN(CC(O)COc3ccc([N+](=O)[O-])cc3)CC2)cc1 (stereo not given) -35.4%
COc1ccccc1N1CCN(C(=O)CCCN2C(=O)c3cccc4cccc(c34)C2=O)CC1 -46.8%
COc1ccc(-c2nnc(SCC(=O)NCCC(C)C)nc2-c2ccc(OC)c(OC)c2)cc1OC -39.6%
CCn1cc(/C=C(\NC(=O)c2ccccc2)C(=O)NCCCN2CCOCC2)c2ccccc21 -35.2%
COc1ccc(NC(=O)CN(C)C(=O)c2cc(-c3ccc(OC)cc3)nc3ccccc23)cc1 -42%
CCn1cc([N+](=O)[O-])c(C(=O)N2N=C(c3cccc4ccccc34)CC2c2ccccc2O)n1 (stereo not given) -33%
O=C(Nc1ccccc1F)N(CCCN1CCOCC1)Cc1cc2cc3c(cc2[nH]c1=O)OCCO3 -31.3%
CCCNC(=O)c1ccc(COc2ccc(CCC)cc2OC)o1 -47.7%
COc1ccc(-c2oc3cccnc3c2-c2ccc(OC)nc2)cc1 -42.4%
Cc1ccc(-c2nnc(NC3CCCC3)s2)cc1 -42.3%
C=CCc1cc(Cl)ccc1OCCOCCNCCOC -45.6%
O=C(Nc1sc2c(c1C(=O)O)CCCC2)c1ccc(Cl)cc1 -35.7%
COc1ccc(Cl)cc1NC(=O)C1CCN(C(=O)C2CC(=O)N(c3ccc(C)cc3)C2)CC1 (stereo not given) -40%

Activity change, inactive:
CNC(=O)COC(=O)c1cc(-c2ccco2)nc2ccccc12 17.1%
COc1cc(CCC(=O)N2CCN(c3ccccc3)CC2)cc(OC)c1OC 3.87%
O=C(OCc1ccc(Br)cc1)c1cccnc1 -8.9%
O=C(COc1ccc(F)cc1)NCCCn1ccnc1 17%
CC(=O)N1CCCc2cc(S(=O)(=O)N3CCCC(C(=O)N4CCN(c5ccccc5)CC4)C3)ccc21 (stereo not given) -25.4%
COc1cccc(-c2cccc(NC(=O)C3CCN(CCCn4cccn4)CC3)c2)c1 -15.3%
CCCCc1[nH]c(=O)c(C#N)c2c1CCCC2 28.6%
CC(/C=C/c1ccccc1)=N\NC(=O)Cn1cncn1 -5.69%
CCN(CC)C(C(=O)Nc1ccc(C(C)C)cc1)c1ccc2c(c1)OCO2 (stereo not given) -4.19%
CC(=O)OC1COC(N2CCc3ccccc32)C(OC(C)=O)C1OC(C)=O (stereo not given) -6.99%
Cc1ccc(-c2nc(SC(C)C(=O)N3CCCC3)n[nH]2)cc1 (stereo not given) 11.4%
Cc1cc(C)c2c(N)c(C(=O)Nc3nccs3)sc2n1 0%
Cc1ccc(Nc2nc(C)c(CCC(C)C)c(=O)[nH]2)cc1 -12.9%
CCNC(=S)N(Cc1ccc2c(c1)OCO2)C1CC(=O)N(c2ccc(F)cc2)C1=O (stereo not given) 0%
COc1ccc(-n2c(N3CCN(C)CC3)nc3sc4c(c3c2=O)CCCCC4)cc1 -12.6%
CCCCCCCCN1C(=O)[C@H](CC(=O)N2CCN(C(=O)OCC)CC2)C[C@@]2(C(=O)OC)CCCCC=C12 -8.29%
CCN1CCN(c2nc3ccccc3nc2NS(=O)(=O)c2ccc(NC(C)=O)cc2)CC1 18.1%
CN1/C(=C/C(=O)COC(=O)C2COc3ccccc3O2)C(C)(C)c2ccccc21 (stereo not given) 10.5%
CCOc1ccccc1N(C)C(=O)CCS(=O)(=O)c1ccc2c(c1)NC(=O)CO2 11.2%

Activity change, active:
CCOc1cc(C=C(C(=O)OC)C(=O)OC)ccc1OCc1ccc([N+](=O)[O-])cc1 -118%
COc1cc(C(CCN2CCCC(C)C2)c2c(OC)cc(OC)c3c2OC(=O)CC3c2ccc(N(C)C)cc2)cc(OC)c1OC (stereo not given) -111%
CC(c1ccco1)N(C(=O)c1ccccc1NS(=O)(=O)c1ccc(Cl)c([N+](=O)[O-])c1)c1ccccn1 (stereo not given) -85.6%
COc1ccc(-c2[nH]c3ccccc3c2SCCN)cc1 -59.2%
COc1cccc(C(=O)Nc2ccc3[nH]ncc3c2)c1 -57.3%
CCC(=O)Nc1ccc(C(=O)Cn2ncc(Cl)c(Cl)c2=O)cc1 -95.6%
O=c1c2ccccc2nc2n1CCS2(=O)=O -88.5%
CC(=O)NCc1ccc(C(=O)CCl)cc1 -102%
c1ccc(CNc2nc(-c3ccccn3)nc3ccccc23)cc1 -71.4%
Cc1cccc(NC(=O)c2nc[nH]c2C(=O)NCCCCCNC(=O)OC(C)(C)C)c1 -74.9%
CCC(C(=O)N1CCN(c2cccc(Cl)c2)CC1)c1ccccc1 (stereo not given) -64.1%
N#C/C(=C(/O)COC(=O)CSc1ccc2ccccc2c1)c1nc2ccccc2[nH]1 -105%
O=C(Cn1c(=O)oc2cccnc21)Nc1ccccc1Oc1ccc(Cl)cc1Cl -71.2%
CCOC(=O)C(C)(C)N(Cc1ccccc1C)S(=O)(=O)c1ccc(Cl)c([N+](=O)[O-])c1 -96.8%
COCC(C)NC(=O)CCS(=O)(=O)c1nc(-c2ccc(OC)cc2)cc(C(F)(F)F)n1 (stereo not given) -102%
COc1cc(OC)nc(Nc2nc(C(N)c3ccccc3)cs2)n1 (stereo not given) -56.2%
CCOC(=O)c1c(C2COc3ccccc3O2)csc1NC(=O)c1ccco1 (stereo not given) -54.1%
O=c1cc(-c2ccncc2)oc2ccccc12 -76.8%
